Reference: the supplement of paper PMC10369915
The list shows a part of the results. No stated cut-off is given here; in the data, active = 3.2 or more and inactive = the rest. Only a few entries rise above the background.

B1: INTS13_Y67_M66T (peptide)
chain: YCRITYDIFPF
B2: INTS13_Y67_M66T_YF (peptide)
chain: FCRITYDIFPF
B3: INTS13_Y67_YF (peptide)
chain: FCRIMYDIFPF
B4: IPO4_Y518_A513V (peptide)
chain: VSLLPYFPAIM
B5: IPO5_Y530_E525K (peptide)
chain: KKFVPYYDLFM
B6: IQCF1_Y144_R141C (peptide)
chain: RICRRYCQVLN
B7: IQGAP2_Y1445 (peptide)
chain: NYYDTYIKTCL
B8: IQGAP2_Y1445_Y1445C (peptide)
chain: NYYDTCIKTCL
B9: IQGAP2_Y1445_Y1445C_YF (peptide)
chain: NFFDTCIKTCL
B10: IQGAP2_Y1445_YF (peptide)
chain: NFFDTYIKTCL
B11: IQGAP2_Y630 (peptide)
chain: PESCLYKESWL
B12: IQGAP2_Y630_L635I (peptide)
chain: PESCLYKESWI
B13: IQGAP2_Y890_T894I_YF (peptide)
chain: FQQLFYLLQIN
B14: IQGAP2_Y890_YF (peptide)
chain: FQQLFYLLQTN
B15: IQGAP3_Y1098 (peptide)
chain: RSHLPYDVTPE
B16: IRAK3_Y61 (peptide)
chain: RHIEKYVDQGK
B17: IRF2BPL_Y423 (peptide)
chain: KLFIEYPTGSG
B18: IRF3_Y107 (peptide)
chain: DPHKIYEFVNS

target: SHP2 C-SH2 domain E139D; test: enrichment score (SH2-bound / input frequency) (ratio); bacterial display of known human phosphotyrosine sites (pTyr-Var adds point mutants) read by sequencing; higher = stronger binding; tyrosines were phosphorylated by kinases first; settings: peptide library: pTyr-Var
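Further: displayed peptides selected on beads carrying the immobilized SH2 domain, with library peptides lacking any tyrosine serving as negative controls.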

Binder | enrichment score
B1 | inactive: 1.3
B2 | inactive: 0.983
B3 | inactive: 1.38
B4 | inactive: 1.45
B5 | inactive: 2.48
B6 | inactive: 0.234
B7 | inactive: 0.954
B8 | inactive: 2.03
B9 | inactive: 2.32
B10 | inactive: 1.33
B11 | inactive: 0.861
B12 | inactive: 1.03
B13 | active: 3.89
B14 | active: 3.54
B15 | inactive: 0.695
B16 | inactive: 1.19
B17 | inactive: 1.73
B18 | inactive: 1.1

target: SHP2 C-SH2 domain wild-type; test: as above; settings: peptide library: pTyr-Var

Binder | enrichment score
B1 | inactive: 1.52
B2 | inactive: 1.34
B3 | inactive: 1.33
B4 | inactive: 1.51
B5 | inactive: 2.2
B6 | inactive: 0.236
B7 | inactive: 1.17
B8 | inactive: 1.88
B9 | inactive: 2.29
B10 | inactive: 1.61
B11 | inactive: 0.817
B12 | inactive: 1.19
B13 | active: 3.37
B14 | active: 3.23
B15 | inactive: 0.617
B16 | inactive: 1.29
B17 | inactive: 1.54
B18 | inactive: 0.778

target: SHP2 N-SH2 domain L43F; test: as above; settings: peptide library: pTyr-Var

Binder | enrichment score
B1 | inactive: 1.25
B2 | inactive: 1.02
B3 | inactive: 1.15
B4 | inactive: 1.58
B5 | inactive: 2.17
B6 | inactive: 0.189
B7 | inactive: 0.954
B8 | inactive: 1.59
B9 | inactive: 2.46
B10 | inactive: 1.39
B11 | inactive: 0.94
B12 | inactive: 0.833
B13 | active: 3.65
B14 | active: 3.69
B15 | inactive: 0.605
B16 | inactive: 1.32
B17 | inactive: 1.33
B18 | inactive: 0.787

target: SHP2 N-SH2 domain T42A; test: as above; settings: peptide library: pTyr-Var

Binder | enrichment score
B1 | inactive: 1.63
B2 | inactive: 1.11
B3 | inactive: 1.11
B4 | inactive: 1.36
B5 | inactive: 2.37
B6 | inactive: 0.188
B7 | inactive: 0.722
B8 | inactive: 1.74
B9 | inactive: 2.16
B10 | inactive: 1.35
B11 | inactive: 0.805
B12 | inactive: 0.929
B13 | inactive: 2.94
B14 | inactive: 3.2
B15 | inactive: 0.679
B16 | inactive: 1.12
B17 | inactive: 1.22
B18 | inactive: 0.673

target: SHP2 N-SH2 domain T52S; test: as above; settings: peptide library: pTyr-Var

Binder | enrichment score
B1 | inactive: 0.995
B2 | inactive: 1.19
B3 | inactive: 1.42
B4 | inactive: 1.61
B5 | inactive: 2.36
B6 | inactive: 0.233
B7 | inactive: 0.853
B8 | inactive: 1.98
B9 | inactive: 2.63
B10 | inactive: 1.24
B11 | inactive: 0.604
B12 | inactive: 0.943
B13 | active: 3.46
B14 | inactive: 3.12
B15 | inactive: 0.623
B16 | inactive: 1.02
B17 | inactive: 1.69
B18 | inactive: 0.788

target: SHP2 N-SH2 domain wild-type; test: as above; settings: peptide library: pTyr-Var

Binder | enrichment score
B1 | inactive: 1.6
B2 | inactive: 1.8
B3 | inactive: 1.66
B4 | inactive: 1.78
B5 | inactive: 2.15
B6 | inactive: 0.166
B7 | inactive: 1.41
B8 | inactive: 1.93
B9 | inactive: 2.04
B10 | inactive: 1.51
B11 | inactive: 0.914
B12 | inactive: 1.36
B13 | active: 3.77
B14 | active: 3.21
B15 | inactive: 0.765
B16 | inactive: 1.13
B17 | inactive: 1.58
B18 | inactive: 0.92
